About 6,900 (2%) of roughly 340,000 compounds were called active. Cut-off read from the data, not from the text of the source: active = inhibition above about 30%; inactive = below that, where a call was filed. The list shows a part of the results, in another mix than the full data. The source gives no active or inactive call for entries shown without one.
Each molecule was assayed against D(2) dopamine receptor (Homo sapiens) (UniProt P14416) (assay: HTS Assay for Allosteric Antagonists of the Human D2 Dopamine Receptor: Primary Screen for Antagonists). Details: HEK293 TREx D2 cells, calcium flux, dopamine EC80; at 10 µM; stronger effect = higher value.
UniProt P14416, sequence (P14416 whole entry, looked up): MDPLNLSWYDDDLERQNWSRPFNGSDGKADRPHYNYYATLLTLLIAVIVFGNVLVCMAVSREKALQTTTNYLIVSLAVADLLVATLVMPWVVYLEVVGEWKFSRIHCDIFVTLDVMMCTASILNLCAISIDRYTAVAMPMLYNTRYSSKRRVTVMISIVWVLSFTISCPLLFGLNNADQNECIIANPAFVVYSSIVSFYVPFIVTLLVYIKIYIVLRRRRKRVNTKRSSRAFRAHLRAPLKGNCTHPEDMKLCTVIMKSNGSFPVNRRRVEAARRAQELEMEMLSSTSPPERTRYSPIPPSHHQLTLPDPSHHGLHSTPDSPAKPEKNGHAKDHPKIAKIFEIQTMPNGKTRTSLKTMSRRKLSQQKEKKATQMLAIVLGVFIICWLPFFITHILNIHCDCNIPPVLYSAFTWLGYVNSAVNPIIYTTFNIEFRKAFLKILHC
In short: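 Calcium flux kinetic readout in an inducible HEK293 TREx D2 line plated overnight at 30 C. After 180 s compound exposure, an EC80 dopamine challenge follows with another 180 s kinetic read to detect antagonism.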
Note: 0% is about no effect.

Row | Structure (SMILES) | inhibition
1 | CCOC(=O)c1cccc2c1N[C@@H](c1ccc(F)cc1)[C@H]1CC=C[C@@H]21 | -2.12%
2 | Cc1ccc(CCNC(=O)c2ccc3c(=O)n(-c4ccccc4)c(=O)[nH]c3c2)cc1 | -5.05%
3 | CCCCC1CCC(C(=O)N2CC(=O)Nc3ccc(Cl)cc3C2c2ccc(F)cc2)CC1 (configuration not stated) | -12.5%
4 | COc1ccccc1CNc1nccn(-c2ccccc2)c1=O | 9.41%
5 | CCOc1ncccc1C(=O)OCC(=O)NC1CCCCCC1 | active: 30.8%
6 | CCC(C)NC(=O)c1sc2nc(C)c(C(=O)Nc3ccc(C)cc3C)c(-c3ccccc3Cl)c2c1N (configuration not stated) | 4.79%
7 | CCN(CC)c1ccc(-c2nc(-c3ccco3)no2)cc1[N+](=O)[O-] | 5.76%
8 | Cc1ccc(C)c(CNC(=O)c2cc3ccccn3n2)c1 | 14.2%
9 | CCOC(=O)C1CCC(CN(Cc2cccc(Br)c2)S(=O)(=O)c2ccc(Cl)cc2)CC1 (configuration not stated) | -7.17%
10 | COc1ccc(NC(=O)Cn2cc(S(=O)(=O)Cc3ccc(F)cc3)c3ccccc32)cc1OC | 5.06%
11 | CCOC(=O)N1CCc2c(sc3c2C(=O)NC(c2ccccc2F)N3)C1 (configuration not stated) | 11.8%
12 | CC1Cc2cc(S(=O)(=O)NCc3ccc(N(C)C)cc3)ccc2N1C(=O)C1CCC1 (configuration not stated) | 6.34%
13 | CCN1C(=O)C(Cc2nc3ccccc3c(=O)n2-c2ccc(OC)cc2)c2ccccc21 (configuration not stated) | 23.7%
14 | COc1ccc(N2CC(NC(=O)COc3ccc4ccccc4c3)CC2=O)cc1OC (configuration not stated) | -26.3%
15 | Cc1c(C)n(C(=O)CN2CCC(C(N)=O)CC2)c2ccccc12 | active: 36.3%
16 | CC1=Nc2cc(C(=O)NCCc3ccc(Cl)cc3)ccc2Sc2c(C)ccc(C)c21 | 7.19%
17 | CC1CCCCN1CCCNC(=O)c1cc(Sc2ccc(Cl)cc2)nc2ccccc12 (configuration not stated) | -10.7%
18 | CCOC(=O)CC(=O)CSc1nc2ccccc2c(=O)n1CCc1ccc(S(N)(=O)=O)cc1 | 24.7%
19 | CC(=O)Nc1ccc(NC(=O)CCS(=O)(=O)c2ccc3c(c2)CC(=O)N3C)cc1 | 2.13%
20 | COc1ccccc1CNC(=O)c1oc2ccc3c(c2c1C)C(=O)CC(C)(C)O3 | 3.27%
21 | COc1ccc(-c2noc(-c3ccc(NCC4CCCO4)c([N+](=O)[O-])c3)n2)cc1OC (configuration not stated) | 1.06%
22 | CCN1CCN(C(=O)c2cc3c(s2)-c2ccccc2S(=O)(=O)C3)CC1 | active: 45.3%
23 | O=C(NC(=S)N1CCN(c2ccc([N+](=O)[O-])cc2)CC1)c1ccccc1 | active: 31%
24 | COc1ccccc1C(=O)OCc1cc(=O)n2nc(C(C)C)sc2n1 | -2.56%
25 | CCCC1=Nc2cc(C(=O)N3CCC(C)CC3)ccc2Sc2ccc(C)cc21 | 0.436%

Row | Structure (SMILES) | inhibition
26 | CC1=C(C(=O)OC2CCCCCC2)C(c2cccc(Cl)c2)CC(=O)N1 (configuration not stated) | 5.74%
27 | Cc1ccc2c(=O)c(C(=O)c3cccc(Cl)c3)cn(CC(=O)Nc3ccccc3C(F)(F)F)c2n1 | -0.576%
28 | CCOc1ccc(-n2nc3ccc(NC(=O)c4ccc(-c5cccc(Cl)c5)o4)cc3n2)cc1 | 4.1%
29 | Cc1nc2scc(C)n2c(=O)c1S(=O)(=O)Nc1cccc(C(F)(F)F)c1 | -11.4%
30 | O=C(Nc1ccc2c(c1)OCO2)NC1CCN(Cc2ccccc2)CC1 | active: 46.4%
31 | COc1ccccc1Cc1nc2ccccc2nc1SCC(=O)NCc1ccccc1Cl | 13.8%
32 | CN1CCc2nc3sc(C(=O)Nc4ccccc4C(F)(F)F)c(N)c3cc2C1 | -1.27%
33 | COc1cccc(C(=O)Nc2cccc(C(=O)OCc3cc(=O)n4c(C)csc4n3)c2)c1 | 7.9%
34 | Cn1c(SCC(=O)Nc2nc3ccccc3s2)ncc(C(=O)Nc2ccc(F)cc2)c1=O | 5.45%
35 | Cc1c(C(=O)NC(C)c2ccccc2)sc2nc3n(c(=O)c12)CCCC3 (configuration not stated) | 7.41%
36 | COCCNC(=O)c1ccc2c(c1)N=C(C)c1cc(C)ccc1S2 | -10.2%
37 | NS(=O)(=O)c1ccc2nc(NC(=O)COc3ccc(Cl)cc3Cl)sc2c1 | -10.5%
38 | CCOC(=O)COc1ccc(C)cc1C(=O)c1ccn2nc(-c3ccc(F)cc3)cc2n1 | -22%
39 | CC1CCN(C(=O)c2cccc(NC(=O)c3nsc4ccccc34)c2)CC1 | 13%
40 | COc1ccc(CC(=O)N2CCc3cc(OC)c(OC)cc3C2COc2ccc(F)cc2)cc1OC (configuration not stated) | 25.4%
41 | O=C(NCc1ccccc1)c1ccc2oc(=O)n(Cc3ccccc3)c2c1 | 4.79%
42 | CCCNC(=O)CSc1nc(-c2ccc(OC)cc2)cc(C(F)(F)F)n1 | -2.42%
43 | O=C(CC1N=C2c3ccccc3N=C(SCC(=O)Nc3ccc(F)cc3)N2C1=O)NCc1cccs1 (configuration not stated) | -0.582%
44 | c1ccc(CN2CCC3(CCCc4ccccc43)CC2)cc1 | active: 42.7%
45 | CCN(CC)CCCNC(=O)c1ccc2c(Cl)c3c(nc2c1)CCCC3 | -4.7%
46 | COCCCNC(=O)C1CCN(c2cc(C)nc3c(-c4ccc(Cl)cc4)c(C)nn23)CC1 | -1.5%
47 | COc1ccc(C(=O)NCCn2cc(SCC(=O)Nc3ccc4c(c3)OCCO4)c3ccccc32)cc1OC | 10.1%
48 | CC(C)CC1Nc2ccc(C(=O)NCCCOC(C)C)cc2NC1=O (configuration not stated) | -2.84%
49 | CCOC(=O)Cn1c(=O)n(-c2ccccc2OC)c2nc(-c3ccc(C(C)C)cc3)nc(C(N)=O)c21 | -1.48%
50 | CCOC(=O)c1c(Oc2ccc(C(C)=O)cc2)nnc(-c2ccccc2)c1-c1ccccc1 | -21.3%

Row | Structure (SMILES) | inhibition
51 | CCc1nn2c(=O)cc(COC(=O)C(CC)c3ccccc3)nc2s1 (configuration not stated) | -7.84%
52 | CCNC(=O)Cn1nc(C)n2c(cc3c(OC)cccc32)c1=O | 16.5%
53 | Cc1ccc(NC(=O)C2CCN(c3nnc(C)c4c(C)n(-c5ccccc5)nc34)CC2)cc1Cl | 5.02%
54 | Cc1oc2ccc(O)c(CN3CCOCC3)c2c1C(=O)Nc1cccc(Cl)c1C | 6.91%
55 | Cc1c(Cl)cccc1-n1ncc(C(=O)N2CCOCC2)c1C1CCN(C(=O)OC(C)(C)C)CC1 | 0.647%
56 | Cc1ccc(OCCCSc2nc(-c3ccc(C(C)(C)C)cc3)nc3cc(=O)[nH]n23)cc1C | 6.6%
57 | Cc1cc(C)n(C(C)CC(=O)NCc2ccc(Cl)cc2)n1 (configuration not stated) | 7.1%
58 | Cc1ccc(OCC(=O)OCc2cc(=O)n3nc(C4CC4)sc3n2)cc1 | 6.73%
59 | Cc1cccn2c(=O)c3cc(C(=O)Nc4ccc(Cl)c(Cl)c4)sc3nc12 | 3.24%
60 | Cc1ccc(Nc2ccc(N3CCN(C(=O)c4ccc([N+](=O)[O-])cc4)CC3)nn2)cc1 | -20.9%
61 | Cc1ccc(S(=O)(=O)NCCc2csc(-c3cccc(F)c3)n2)cc1 | 0.773%
62 | Cn1c(SCc2ccc(Br)cc2)nc2c([nH]c3ccccc32)c1=O | -12.7%
63 | Cc1nc2ccn(Cc3ccco3)c(=O)c2cc1C(=O)NCc1ccc(F)cc1 | 15.7%
64 | Cc1ccc(NC(=O)CN2C(=O)CC(C)Sc3ccccc32)c(C)c1 (configuration not stated) | 6.8%
65 | CCOC(=O)c1cccc(NS(=O)(=O)c2cc3c(cc2C)NC(=O)CO3)c1 | 11.3%
66 | O=C(c1ccc(Nc2nc3ccccc3n3nnnc23)cc1)N1CCN(c2cccc(C(F)(F)F)c2)CC1 | 9.47%
67 | Cc1ccc(C)c(NS(=O)(=O)c2cc3c4c(c2)C(C)C(=O)N4CCC3)c1 (configuration not stated) | 19.3%
68 | C(=N\N1CCOCC1)/c1nc(-c2ccccc2)n2ccccc12 | active: 43.4%
69 | CCCCN(CC)C(=O)c1cc2c(=O)n3cccc(C)c3nc2s1 | 24.5%
70 | COc1cc(Cl)c(C)cc1NC(=O)c1cnc(N2CCOCC2)c2ccccc12 | 19.3%
71 | CCOC(=O)c1ccc(NC(=O)CSC2=NC(=O)C(CC)C(=O)N2)cc1 (configuration not stated) | active: 47%
72 | CCc1ccccc1NC(=O)CC1Sc2ccc(C(F)(F)F)cc2NC1=O (configuration not stated) | 11.4%
73 | CCCCSc1nnc2c(n1)OC(C)N(C(C)=O)c1ccccc1-2 (configuration not stated) | 9.96%
74 | COc1ccc(CCNC(=O)Cc2c(C)c3cc4c(C)coc4c(C)c3oc2=O)cc1 | 22.3%
75 | COc1ccc(CCNC(=O)C2COc3ccccc3C2)cc1OC (configuration not stated) | -8.46%

Row | Structure (SMILES) | inhibition
76 | Cn1c(Oc2ccc(Cl)cc2)nc2c1c(=O)n(Cc1ccc(F)cc1)c(=O)n2C | 5.83%
77 | COc1cc(C)c(S(=O)(=O)NCc2ccc3c(c2)OCO3)cc1C | active: 31.7%
78 | COc1ccc(C(=O)NC(c2ccc(Cl)cc2)c2cc(Cl)c3cccnc3c2O)cc1 (configuration not stated) | 0.86%
79 | O=C(NCCc1ccccc1)c1ccc2c(c1)N(Cc1ccc(F)cc1)C(=O)c1ccccc1S2 | 8.47%
80 | CCc1ccc(-c2cc(C)no2)cc1S(=O)(=O)Nc1ccc(C)cn1 | 0.153%
81 | Cc1cccc(-c2nnn3c2nc(NCc2ccccc2)c2ccccc23)c1 | -13.4%
82 | CC(C)CCNC(=O)C1CCN(S(=O)(=O)c2cccc3nsnc23)CC1 | -5.34%
83 | N#Cc1cccc(NC(=O)COC(=O)CCc2ccc(S(=O)(=O)N3CCOCC3)cc2)c1 | active: 34.4%
84 | O=C(NCCCc1nc2ccccc2n1Cc1ccccc1)C1CCCCC1 | 8.59%
85 | Cc1ccccc1OCc1ccc(-c2nc(C#N)c(N3CCN(c4ccccc4)CC3)o2)o1 | -5.85%
86 | CN(C)c1cc2c(cc1NC(=O)c1ccc(F)cc1)n(C)c(=O)n2C | -7.3%
87 | COc1cccc(Cn2c(C)c(CNCc3ccccc3Cl)c(C(=O)O)c2C)c1 | 0.935%
88 | CCOc1ccc(CNC(=O)c2ccc(NC(=O)N3CCSc4ncccc43)cc2)cc1OC | 2.69%
89 | CC(=O)c1cccc(NC(=O)CN2C(=O)c3cccnc3Sc3ccccc32)c1 | 3.57%
90 | CCc1ccc(NC(=O)Cn2c(=O)n(-c3ccccc3)c(=O)c3ccc(C(=O)NCc4ccc5c(c4)OCO5)cc32)cc1 | -8.06%
91 | Cc1ccc(C)c(Cn2c(=O)n(Cc3ccco3)c(=O)c3oc4ccccc4c32)c1 | -3.81%
92 | CCc1ccccc1NC(=O)c1sc2nc3n(c(=O)c2c1C)CCC3 | 18.5%
93 | COc1cc(CN(C(=O)c2ccc(OC(C)C)cc2)C2CCS(=O)(=O)C2)cc(OC)c1OC (configuration not stated) | -3.67%
94 | CCN1CCOC(=O)C1CC(=O)Nc1ccc(C(C)=O)cc1 (configuration not stated) | 3.27%
95 | CCOC(=O)c1cnc2ccc(C(=O)OC)cc2c1Nc1ccc(N2CCOCC2)cc1 | 1.21%
96 | CCOc1ccc(CCNC(=O)c2ccc(CS(=O)(=O)c3ccccc3C)o2)cc1OCC | 20.5%
97 | COC(=O)c1ccc(Cn2c(SCC(=O)NCc3ccccc3)nc3ccccc32)cc1 | -11.6%

— PubChem BioAssay AID485344 (National Center for Advancing Translational Sciences (NCATS), 2010)
